# Source: PubChem BioAssay AID1347165 (National Center for Advancing Translational Sciences (NCATS), 2019)
# Among all 220,000 compounds or so, about 5,700 (2.6%) were called active. The shares of active, inactive and inconclusive entries below differ from those in the screen. Calls come from the whole dose curve; as a rule, active = well fitted inhibition curve with a large enough effect; inconclusive = small, poorly fitted or top-dose-only effect; inactive = no such curve, though single readings can be large or run the other way. Potencies beside an inconclusive call are fits to weak or partial responses and may not hold up.
# Target: Lysine-specific demethylase 5B (Homo sapiens) (UniProt Q9UGL1)
# Sequence of UniProt Q9UGL1 (Q9UGL1 whole entry, looked up): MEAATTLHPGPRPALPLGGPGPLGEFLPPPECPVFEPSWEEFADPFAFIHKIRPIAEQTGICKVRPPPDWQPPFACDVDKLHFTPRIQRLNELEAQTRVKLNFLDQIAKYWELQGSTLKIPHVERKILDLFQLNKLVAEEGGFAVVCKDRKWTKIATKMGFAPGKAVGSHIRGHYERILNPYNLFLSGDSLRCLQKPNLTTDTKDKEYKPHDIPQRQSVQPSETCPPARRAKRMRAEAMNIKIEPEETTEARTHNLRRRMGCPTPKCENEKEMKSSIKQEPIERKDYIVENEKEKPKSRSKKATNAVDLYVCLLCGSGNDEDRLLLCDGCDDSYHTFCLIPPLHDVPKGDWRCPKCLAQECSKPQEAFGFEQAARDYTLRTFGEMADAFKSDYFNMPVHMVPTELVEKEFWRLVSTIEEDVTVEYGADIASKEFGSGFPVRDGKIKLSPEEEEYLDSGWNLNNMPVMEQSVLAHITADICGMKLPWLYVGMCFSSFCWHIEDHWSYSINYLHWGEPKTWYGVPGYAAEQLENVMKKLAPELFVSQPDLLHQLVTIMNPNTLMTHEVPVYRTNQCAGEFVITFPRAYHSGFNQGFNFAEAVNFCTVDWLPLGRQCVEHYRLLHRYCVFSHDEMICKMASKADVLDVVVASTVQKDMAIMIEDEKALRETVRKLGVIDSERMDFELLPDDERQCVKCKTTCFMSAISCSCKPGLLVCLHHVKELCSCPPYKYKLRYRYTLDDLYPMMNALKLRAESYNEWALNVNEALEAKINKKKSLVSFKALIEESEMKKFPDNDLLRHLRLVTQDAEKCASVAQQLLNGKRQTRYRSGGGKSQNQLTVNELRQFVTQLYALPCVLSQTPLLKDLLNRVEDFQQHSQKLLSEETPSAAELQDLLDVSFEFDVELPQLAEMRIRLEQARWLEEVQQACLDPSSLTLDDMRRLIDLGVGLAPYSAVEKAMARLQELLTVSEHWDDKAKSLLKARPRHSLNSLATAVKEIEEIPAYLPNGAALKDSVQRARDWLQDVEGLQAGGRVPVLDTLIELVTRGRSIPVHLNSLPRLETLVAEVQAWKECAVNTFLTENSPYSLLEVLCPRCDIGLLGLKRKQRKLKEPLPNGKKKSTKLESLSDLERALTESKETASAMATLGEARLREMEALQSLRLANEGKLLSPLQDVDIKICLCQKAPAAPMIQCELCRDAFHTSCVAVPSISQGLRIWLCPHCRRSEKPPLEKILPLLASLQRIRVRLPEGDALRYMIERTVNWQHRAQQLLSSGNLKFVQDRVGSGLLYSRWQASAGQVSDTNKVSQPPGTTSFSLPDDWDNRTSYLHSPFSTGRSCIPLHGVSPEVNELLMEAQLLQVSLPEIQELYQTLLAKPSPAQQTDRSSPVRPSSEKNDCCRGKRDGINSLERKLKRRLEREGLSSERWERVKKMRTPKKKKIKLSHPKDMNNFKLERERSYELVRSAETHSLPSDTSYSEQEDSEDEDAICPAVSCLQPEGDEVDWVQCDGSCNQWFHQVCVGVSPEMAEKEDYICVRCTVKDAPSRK
# Experiment: Primary screen for KDM5B Histone Demethylases FDH-coupled qHTS; note: nearly all actives have a fitted effect of over 70% in size; for activity change, negative = inhibition: 0% is about no effect
# Conditions: FDH-coupled NADH fluorescence (FDH is formaldehyde dehydrogenase); activity change, negative = inhibition: at 57.7 µM (top of the series) unless noted
# Method in brief: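 Compound dilutions met 200 nM (final) KDM5BΔAP for 10 min at room temperature before substrate addition. The substrate mix held 12.5 µM H3K4me3 with cofactors 25 µM α-ketoglutarate and 50 µM Fe²⁺. NADH signal gain over 30 min defined activity.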
# Potency is the fitted concentration of half-maximal effect; tags give direction and shape of the fitted curve.
SMILES,Potency,"activity change, negative = inhibition"
COc1ccc(-c2cc(C(F)(F)F)nc(SCC(=O)NCc3ccc(OC)c(OC)c3)n2)cc1,"inconclusive: 17.8 µM [inhibitor, partial curve, poor fit]",–
CSc1sccc1/C=C(/C#N)C(=O)c1ccco1,"inconclusive: 35.5 µM [inhibitor, partial curve, poor fit]",–
O=C(NCC1CCOCC1)C1CC(=O)N(c2n[nH]c3cccc(F)c23)C1 (stereo not given),"inconclusive: 15.8 µM [inhibitor, partial curve, poor fit]",–
CC(=O)c1cccc(NC(=O)C23CC4CC(CC(C4)C2)C3)c1,inactive,–
O=c1cc(-c2cnccn2)oc2c(-c3cn[nH]c3)nccc12,"inconclusive: 31.6 µM [inhibitor, partial curve, poor fit]",–
COc1cc(CNC(=O)Cc2ccc(Cl)cc2)ccn1,inactive,–
COc1cc(NC(=O)NC[C@H]2O[C@@H](CO)[C@@H](O)[C@H]2N(C)CCN(C)C)cc(OC)c1,"inconclusive: 31.6 µM [inhibitor, single point]",–
Cc1ccc2nc(/C(C#N)=C/c3cccc(O)c3)[nH]c2c1,"inconclusive: 31.6 µM [inhibitor, single point]",–
CN(C)C(=O)c1ccc2c(c1)N(C)C(CC(=O)NC(C)(CO)CO)CO2 (stereo not given),inactive,–
CC(C)N1CCN(C(=O)C23CCCC=C2N(c2ccccc2)C(=O)CC3)CC1 (stereo not given),"inconclusive: 22.4 µM [inhibitor, partial curve, poor fit]",–
COc1ccc(-c2nc(C)nc3c2CCN(C(=O)c2ccccc2)CC3)cc1,inactive,–
O=C(Cc1ccc(F)cc1)NCc1nnc2cc(-c3nc(C4CC4)no3)ccn12,active: 28.2 µM,–
COC(=O)c1ccc(OC(=O)c2ccncc2)cc1O,"inconclusive: 14.1 µM [inhibitor, single point]",–
CCCCNC(=O)C1CCN(Cc2nc(-c3ccc(OC)c(OC)c3)oc2C)CC1,"inconclusive: 25.1 µM [inhibitor, single point]",–
CCn1cnc2c1c(=O)n(CC(=O)Nc1ccc(C)c(F)c1)c(=O)n2Cc1ccccc1,inactive,–
Cc1ccccc1COc1cccc(CNc2ccccc2)c1,"inconclusive: 20 µM [inhibitor, partial curve, poor fit]",–
O=C(NCCCN1CCN(c2ccccc2)CC1)c1cc2c(s1)-c1ccccc1OC2,"inconclusive: 25.1 µM [inhibitor, partial curve, poor fit]",–
O=C(O)CCCc1c(-c2ccccn2)[nH]c2ccccc12,inactive,–
COc1cc2c(cc1OC)-c1c(c(C(=O)N3CCCC3)nn1-c1ccccc1F)C2,"inconclusive: 8.91 µM [inhibitor, partial curve, poor fit]",–
Fc1cccc(-c2cnc([C@@H]3COCCN3Cc3ccc(Cl)cc3)[nH]2)c1,"inconclusive: 31.6 µM [inhibitor, single point]",–
O=C(c1ccc(Cl)cc1)N1CCC(n2cc(-c3ccccn3)[nH]c2=O)CC1,active: 44.7 µM,–
O=C(NCc1ccc(Cl)cc1)C1CCCN(c2ncnc3onc(-c4ccc(F)cc4)c23)C1 (stereo not given),"inconclusive: 39.8 µM [inhibitor, single point]",–

SMILES,Potency,"activity change, negative = inhibition"
CCCCCc1coc2cc(O)ccc2c1=O,"inconclusive: 39.8 µM [inhibitor, single point]",–
COc1ccc(Nc2nnc(-c3ccc(C)c(S(=O)(=O)N4CCOCC4)c3)c3ccccc23)cc1,"inconclusive: 35.5 µM [inhibitor, single point]",–
COc1ccc(CNC(=O)Cn2ccn3nc(-c4ccc(F)cc4)c(CO)c3c2=O)cc1OC,"inconclusive: 25.1 µM [inhibitor, single point]",–
O=C(N[C@H]1CCOC[C@H]1C1CCOCC1)c1cc(=O)[nH]c2ccc(F)cc12,active: 22.4 µM,–
COc1ncccc1-c1cc(-c2ccc(=O)[nH]c2)c2cncn2c1,active: 28.2 µM,–
CNc1ccc(C)cc1C(=O)N1CCC2(CCCN(C)CC2)CC1,"inconclusive: 25.1 µM [inhibitor, single point]",–
CCOc1ccc(-c2ccc(CO)o2)cc1N,"inconclusive: 22.4 µM [inhibitor, partial curve, poor fit]",–
CCc1ccc(C2c3c(n[nH]c3C)C(=O)N2c2ccc(C)cc2)cc1 (stereo not given),–,inconclusive: -42.5% [inhibitor]
Cc1ccc(S(=O)(=O)N2CCN(C(C(=O)NC3CC3)c3ccccc3)CC2)c(C)c1 (stereo not given),inactive,–
O=C(Nc1cccc(Cl)c1)C1Sc2nnc(-c3ccccc3)n2NC12CCCCC2 (stereo not given),inactive,–
COc1ccc(-c2nc3c(c(-c4ccccc4)n2)CN(C(=O)c2cccc(Cl)c2)CC3)cc1,"inconclusive: 17.8 µM [inhibitor, partial curve]",–
COc1ccc(-c2nnc(SCC(=O)NC(C)c3ccc4c(c3)CCCC4)o2)cc1 (stereo not given),inactive,–
O=C(NCCC1=CCCCC1)c1ccc2c(c1)N(Cc1ccccc1)C(=O)c1ccccc1S2(=O)=O,"inconclusive: 5.01 µM [inhibitor, partial curve, poor fit]",–
Nc1nccnc1C(=O)NCCc1cccc(F)c1,"inconclusive: 28.2 µM [inhibitor, partial curve, poor fit]",–
CNC(=O)c1ccc(-c2nc(CN3CCN(C(=O)Nc4ccccc4C(=O)OC)CC3)c(C)o2)cc1,inactive,–
COc1ccc(-c2ccc3c(c2)C(=O)N2CC[C@H](NC(=O)NC(C)C)[C@H]2C(=O)N3)c(OC)c1,"inconclusive: 25.1 µM [inhibitor, single point]",–
COc1ccc(OC)c(CNS(=O)(=O)c2ccc(-c3cc(C(F)(F)F)on3)s2)c1,"inconclusive: 14.1 µM [inhibitor, partial curve, poor fit]",–
O=C(c1ccc(OC(F)F)cc1)N1C[C@H](CO)C[C@H](CN2CCCC2)C1,"inconclusive: 20 µM [inhibitor, partial curve, poor fit]",–
COc1ccc(Cl)cc1-c1ccc2c(c1)C(=O)N1CC[C@H](NC(=O)c3cccs3)[C@H]1C(=O)N2,active: 25.1 µM,–
N#Cc1cccc(-c2cn3c(n2)N(C(=O)c2ccccc2)CCC3)c1,active: 20 µM,–
COc1ccc(NC(=O)O[C@@H]2CO[C@H]3[C@@H]2OC[C@@H]3n2nnnc2SCc2ccco2)cc1,"inconclusive: 22.4 µM [inhibitor, partial curve]",–
C1=C(c2nc(-c3ccncc3)cc3c2ccn3Cc2cccnc2)CCOC1,"inconclusive: 39.8 µM [inhibitor, partial curve, poor fit]",–

SMILES,Potency,"activity change, negative = inhibition"
Cc1nccn1C1(C(=O)O)CCN(Cc2ccc(-c3ccn[nH]3)o2)CC1,"inconclusive: 10 µM [inhibitor, partial curve]",–
CCNc1ncc(CN2CCN(c3ccncc3)CC2)cn1,"inconclusive: 22.4 µM [inhibitor, partial curve]",–
Cc1cccc(NC(=S)NN=C2CCCC2)c1,inactive,–
Cc1ccc(SCC(=O)Nc2ccc3oc(-c4cccc(C)c4)nc3c2)cc1,"inconclusive: 28.2 µM [inhibitor, partial curve, poor fit]",–
COc1cccc(-c2nc(CS(=O)CC(=O)N3CCN(c4cccc(C(F)(F)F)c4)CC3)c(C)o2)c1 (stereo not given),"inconclusive: 39.8 µM [inhibitor, single point]",–
Cn1nc(C2CCN([S+](=O)([O-])c3cccc(C(F)(F)F)c3)CC2)[nH]c1=O,inactive,–
O=C(Cn1cncn1)N/N=C/c1ccccc1O,"inconclusive: 25.1 µM [inhibitor, partial curve, poor fit]",–
O=c1c2nc(Nc3ccc(C(F)(F)F)cc3)ccc2ncn1C1CC1,"inconclusive: 31.6 µM [inhibitor, single point]",–
CN1CC(=O)N(C2CCCNCC2)Cc2c1ncnc2N1CCCC(O)C1 (stereo not given),"inconclusive: 56.2 µM [inhibitor, partial curve]",–
Cc1cc(=O)n(CC(=O)Nc2cccc(F)c2)c(N(C)Cc2ccccc2)n1,inactive,–
O=C(Nc1ccc2c(c1)N(C1CCCC1)C(=O)c1ccccc1S2)c1ccccc1,"inconclusive: 39.8 µM [inhibitor, single point]",–
COc1cccc(-c2nnnn2[C@H]2CO[C@H]3[C@@H]2OC[C@@H]3NC(=O)c2ccc(C(F)(F)F)cc2)c1,"inconclusive: 25.1 µM [inhibitor, single point]",–
COc1cc(-c2c(C#N)c(N)nc3c2CN(C)CC3)cc(OC)c1OC,"inconclusive: 1.78 µM [inhibitor, full curve, poor fit]",–
O=C(c1ccc(-c2ccc(N3CCSCC3)nc2)cc1)N1CCCCC1,active: 28.2 µM,–
CCN(CC)Cc1nnc2cc(-c3nc(-c4ccccc4)no3)ccn12,active: 20 µM,–
COc1ccc(C2CC(=O)N3CN(C4CCCCC4)CSC3=C2C#N)cc1 (stereo not given),"inconclusive: 3.16 µM [inhibitor, partial curve, poor fit]",–
Cc1ccc(-n2cc(C(=O)N3CCC(NC(=O)OC(C)(C)C)CC3)nn2)cc1C,inactive,–
COc1ccc(-n2c(=O)c3c4c(sc3n(Cc3cc(=O)n5c(C)cccc5n3)c2=O)CCC4)c(OC)c1,"inconclusive: 28.2 µM [inhibitor, partial curve, poor fit]",–
CC(C)OC(=O)c1c(-c2ccccc2Cl)csc1NC(=O)CCCC(=O)O,inactive,–
N#Cc1nc(/C=C/c2cccs2)oc1NC1CC1,"inconclusive: 31.6 µM [inhibitor, partial curve, poor fit]",–
O=C1Nc2ccc(-c3cccc(C(F)(F)F)c3)cc2C(=O)N2CCN(C(=O)c3ccco3)C[C@@H]12,active: 35.5 µM,–
